# Data: the supplement of paper PMC3334620
# Over roughly 33,000 sequences, “E-score (-0.5 to 0.5)” has its median near -0.017; the highest 2% begin near 0.3. This is one part of the list.
# Biological target: T1, Sut1 (UniProt P53032)
# T1 sequence: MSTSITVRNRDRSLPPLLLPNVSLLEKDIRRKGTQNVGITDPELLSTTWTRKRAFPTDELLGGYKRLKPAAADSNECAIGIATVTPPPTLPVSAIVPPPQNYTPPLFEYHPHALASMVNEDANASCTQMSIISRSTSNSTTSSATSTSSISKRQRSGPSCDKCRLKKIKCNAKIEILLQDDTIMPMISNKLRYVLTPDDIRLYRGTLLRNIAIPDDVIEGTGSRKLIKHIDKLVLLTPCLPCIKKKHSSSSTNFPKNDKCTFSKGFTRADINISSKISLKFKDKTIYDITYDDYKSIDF
# Experiment: PBM E-score (8-mer binding enrichment) (E-score (-0.5 to 0.5)); higher = stronger / more preferred TF binding; most listed sequences are background and not binding sites
# Conditions: protein concentration: 200 nM; construct: GST-full length
# Procedure: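 Universal 'all 10-mer' protein binding microarrays (Agilent AMADID 015681) probed with GST-tagged S. cerevisiae TFs (full-length or DBD) made by in vitro transcription/translation (PURExpress), about 100-200 nM. Bound TF was detected with fluorescent anti-GST. Each ungapped 8-mer (which stands for itself and its reverse complement) is scored by the PBM enrichment score (E-score), a modified Wilcoxon-Mann-Whitney statistic from -0.5 to +0.5, computed with the Universal PBM Analysis Suite. Scale: above 0.35 generally sequence-specific binding.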
row,Sequence,PBM E-score
1,AGACTAAG,-0.08
2,ATTTCACG,0.097
3,CCATAACG,-0.052
4,GAGCCTGA,-0.0214
5,GGAAAATA,0.226
6,AACGTCTA,0.0273
7,ATAACTTC,0.156
8,CCCTTGAG,-0.142
9,GCCACTGA,-0.118
10,GAAGGTTA,0.0509
11,AAGGAGGA,-0.173
12,GCCAGAGA,-0.213
13,CATGAGGG,-0.23
14,GTAGAGGA,-0.0611
15,CATTTGTC,0.126
16,CATACTGA,0.0321
17,ACCCTCGG,0.0508
18,GACATACA,0.196
19,ACTAACTG,0.173
20,AACGCCGT,-0.0439
21,AATCAGCG,0.0776
22,GCTGTATA,-0.0571
23,ACACTGGA,-0.0901
24,GCATGGGA,-0.265
25,AAATTCTC,0.0733

row,Sequence,PBM E-score
1,GATCCCAA,0.0759
2,CGACCTGA,-0.184
3,CCTATTGC,-0.0728
4,AAATACCT,0.116
5,AAGACTGC,-0.129
6,ACACAGCA,0.0686
7,TAAATAGA,0.0796
8,AGCGACTG,-0.0885
9,CAGGAGCA,-0.0774
10,GCGGCCGA,-0.139
11,CATCGTCC,-0.0367
12,ATCACACG,-0.0185
13,ATTCTGAA,0.0968
14,CGGTTTGA,-0.0544
15,AGGGTTTG,-0.0833
16,CACCGCGC,-0.135
17,AAGTTTAG,0.141
18,AGCCTCAG,-0.139
19,CCGAGCGG,0.0656
20,AGGAATCG,0.0824
21,CATGGTGC,-0.174
22,GTCATTTA,0.0178
23,CGGTTTGC,-0.0302
24,AAAGATTG,-0.0192
25,ACTTAGGG,-0.0378

row,Sequence,PBM E-score
1,GGGCGGCA,-0.153
2,CTGAATCC,-0.0454
3,GGATGAGA,-0.0777
4,ATTGGTGA,0.0125
5,CGTGGTGC,-0.117
6,ATTACACA,0.234
7,CCACATGC,-0.00682
8,GAGTTCAA,0.152
9,ACCGCGAT,0.117
10,AAGATCCC,-0.0518
11,AGGCGATC,-0.0705
12,TCTTCTCA,0.143
13,CGCGGGAG,-0.257
14,GCGCCAAC,-0.041
15,ATTAAAAC,0.296
16,ACCAGAGT,-0.256
17,GATCCTGC,-0.18
18,AGAGTCCT,-0.114
19,GACCCAGA,-0.0368
20,CACTTATG,0.0725
21,TACTGCCA,-0.175
22,CCCGAAGC,-0.166
23,AGTGTACC,-0.273
24,CTTTTTTC,0.162
25,GCCGGCGC,0.089

row,Sequence,PBM E-score
1,CTGGTTCC,0.00794
2,TAGCCCGA,-0.14
3,CCGATGAA,0.16
4,ATGCGCCG,0.0604
5,ACTACGAT,0.0234
6,AGTGCGCA,-0.042
7,CAGGAGCC,-0.295
8,AGGTTGGC,-0.015
9,GTGGCACA,-0.278
10,TGATTCCA,-0.0562
11,ATGCGCTC,-0.0384
12,ACACCTTA,0.0334
13,CACATGTC,-0.162
14,AATGCAGG,-0.0157
15,ATTGTCGA,0.0452
16,ACATAAGA,0.215
17,AGATTCTC,0.104
18,CTGATCAG,0.0171
19,AACAATAG,0.00653
20,CGTATCAA,0.0679
21,GCACTTGA,-0.219
22,ATCACGAC,-0.154
23,CAATTCCG,0.305
24,GACAGACC,-0.173
25,AACAGCAG,0.057

row,Sequence,PBM E-score
1,AGATGCAA,0.00695
2,AACAGACA,0.0562
3,CATCTACC,0.0105
4,AACACGGA,0.278
5,ATAGTGCG,0.0358
6,ACTAAGTA,0.0257
7,AGGTATGC,0.00804
8,CCGGCCAC,0.0457
9,AAGGGCGC,-0.146
10,TAAATAAA,0.247
11,CAGCGTTA,-0.187
12,CGGACTTA,0.492
13,GCAGGCGA,-0.248
14,GACAGGTC,-0.0333
15,TCGGAGAA,0.436
16,CCTTAAGC,-0.198
17,ACTGGGGC,-0.231
18,CGACGAGC,-0.149
19,AGGACATG,-0.265
20,TCGAGCAA,0.0639
21,ATAGGCGA,-0.105
22,GGCTGACC,-0.205
23,CGTTAGTA,0.0878
24,AACAATCG,-0.091
25,CGGTCTAC,-0.0329

row,Sequence,PBM E-score
1,GATAACCA,0.068
2,CGTCCGAG,0.149
3,AACTAGTG,0.0498
4,AGACCTAG,-0.181
5,AGTCGGGG,0.0551
6,CAATCCTA,-0.00398
7,ACAGTAAC,0.086
8,CCCCTAGC,-0.354
9,GGCACGCA,-0.0969
10,CACTGCTA,-0.0464
11,ACGCGGGG,-0.0279
12,AGACGCTC,-0.2
13,AGATCCCA,-0.0528
14,CTATCACC,-0.106
15,CTTTACAA,0.156
16,CTTCTTGA,0.0289
17,TATGTCGA,0.0764
18,CTCGTTAC,-0.0946
19,AAATACGT,0.115
20,CTCTGCGA,-0.0656
21,CTTGTCTA,0.0157
22,AACGAACG,0.037
23,CCGACCCC,-0.278
24,AAGGCTCC,-0.0622
25,GGAGTCAA,0.134

row,Sequence,PBM E-score
1,AGATTGTC,0.0787
2,ACCAGAGA,-0.075
3,ACTGGACG,-0.186
4,CAGCTGGA,-0.104
5,GTTAACGA,-0.028
6,GGCGAATA,-0.0185
7,GCACTAAA,0.228
8,AGTATTAT,0.0963
9,GCTAGGCC,-0.203
10,AACTATGG,-0.0313
11,AGAACTTC,0.0323
12,CTATTTGA,0.206
13,AACTAGGA,0.0329
14,CCCACCCA,-0.132
15,GAAGATAC,0.0856
16,TAATGTCA,-0.0654
17,AGGACAGG,-0.0615
18,CAAAAATG,0.145
19,AAAGGTTG,0.0238
20,CCTGACGC,-0.333
21,AACGTTTG,0.0521
22,CAGCTAGA,-0.072
